# Laboratory results from PubChem BioAssay AID1240 (Sanford-Burnham Center for Chemical Genomics, 2008).
# Among all 50,000 compounds or so, about 800 (1.6%) showed an effect of 50% or more. The list shows a part of the results.
# Target: Bcl-2-like protein 10 (Homo sapiens) (UniProt Q9HD36)
# Experiment: TR3 peptide-Bcl-B binding displacers, biochemical primary FP assay, phenotype converters (AID 1240);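 note: 0% = Bcl-B with tracer peptide and DMSO and 100% = tracer peptide lacking Bcl-B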
# Settings: GST-Bcl-B / FITC-TR3 peptide fluorescence polarization; stronger effect = higher value; compound at 3.75 mg/L
# UniProt Q9HD36, sequence (Q9HD36 whole entry, looked up): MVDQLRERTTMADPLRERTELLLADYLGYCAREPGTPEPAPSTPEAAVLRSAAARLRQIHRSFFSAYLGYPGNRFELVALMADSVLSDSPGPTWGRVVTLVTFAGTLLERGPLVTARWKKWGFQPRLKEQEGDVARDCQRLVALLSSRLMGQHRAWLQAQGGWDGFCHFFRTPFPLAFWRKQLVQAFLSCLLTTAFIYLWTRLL
row,SMILES,displacement [%]
1,O=C(Nc1ccc(-c2nc3ccccc3[nH]2)cc1)c1cccc(Br)c1,-2.5
2,Cc1cc2nc(-c3ccc(N)cc3)oc2cc1C,-1.5
3,CCN(CC)c1ccc(NC(=O)c2ccc(Br)o2)cc1,6.2
4,Cc1cc(C)cc(N2C(=O)NC(=O)/C(=C\c3ccc(I)o3)C2=O)c1,28.7
5,COc1cc(C2NC(=S)NC(C)=C2C(=O)Nc2ccc(Cl)cc2)ccc1O (centres undefined),11.1
6,CCOc1ccc(NC(=O)c2cnn(-c3ccccc3)c2NC(=O)c2ccc(C)cc2)cc1,14.4
7,O=C1NC(=O)N(c2ccc(Cl)cc2)C(=O)/C1=C/c1ccc(-c2ccc(Cl)cc2[N+](=O)[O-])o1,10.6
8,O=[N+]([O-])c1cccc(S(=O)(=O)NCc2ccc3c(c2)OCO3)c1,3.8
9,COc1cc(C(=O)N2CCN(C3CCCC3)CC2)cc(OC)c1OC,-14
10,O=C1NC(=S)NC(=O)C1=Cc1cc(Cl)c(OCc2ccc(C(=O)O)cc2)c(Cl)c1,8.5
11,CCOC(=O)c1cnc2cc(-c3cccs3)[nH]n2c1=O,11.2
12,O=C(COc1ccccc1Cl)NNC(=O)c1ccc2ccccc2c1,-9.4
13,Cc1cc(Cl)ccc1OCCCN1CCOCC1,12.4
14,CC(=O)Nc1ccc(Oc2ccc(C(=O)O)c(C(=O)O)c2)cc1,0.3
15,Cc1n[nH]c(C)c1CCCCCCOc1cccc(Cl)c1,11.1
16,CC(C)Cn1c(CCCN2C(=O)c3ccccc3C2=O)nc2ccccc2c1=O,1.7
17,O=C(Nc1scc(-c2ccccc2)c1C(=O)O)c1ccccc1F,16.4
18,C=CCn1c2ccccc2c2nnc(SCC(=O)N=C3NC(=O)CS3)nc21,49.7
19,CC(C)COc1ccc(C(=O)Nc2ccccc2[N+](=O)[O-])cc1,3.7
20,O=C1NC(=O)N(c2ccccc2)C(=O)/C1=C\c1ccc(-c2ccc([N+](=O)[O-])cc2)o1,130
21,N#CCC(=O)NNC(=O)COc1cccc2ccccc12,-20
22,Cc1cc(/C=C2\C(=O)NC(=S)N(c3cccc(Br)c3)C2=O)c(C)n1C,14.5
23,COc1cc(NC(=O)c2ccccc2)c(Cl)cc1NC(=O)c1ccc(Cl)c(Cl)c1,10
24,O=[N+]([O-])c1ccc(Cl)cc1NCCNS(=O)(=O)c1ccc2ccccc2c1,13.8
25,CCCc1cc(=O)n2[nH]c(-c3ccc(C)cc3)cc2n1,9.9
26,CCC(NC(C)=O)c1ccc(Br)cc1 (centres undefined),6.6
27,Cc1ccccc1NC(=O)/C(=C/c1ccc(Br)cc1)NC(=O)c1ccccc1,-7.5

row,SMILES,displacement [%]
1,O=C(Nc1ccc(OC(F)(F)F)cc1)c1ccc(Br)o1,33.6
2,COc1ccccc1CNC(=O)COc1ccc2ccccc2c1,29.5
3,CCC(=O)Nc1ccc2c(c1)C(=O)N(C)C2=O,13.6
4,COc1ccccc1OCCOc1ccc(Cl)cc1/C=C1/SC(=S)N(C)C1=O,2.3
5,CCOc1cc(C=C2C(=O)NC(=O)NC2=O)ccc1OCCOc1ccc(C(C)(C)C)cc1,10
6,O=C(/C=C/c1ccc2c(c1)OCO2)N1CCC(CN2C(=O)c3cccc4cccc(c34)C2=O)CC1,12.4
7,O=C1NC(=O)N(c2cccc(Br)c2)C(=O)/C1=C/c1cccs1,3.8
8,C/C(NN1CCN(C)CC1)=C(\C#N)C(=O)NCc1ccccc1,-10.8
9,Cc1ccccc1NC(=O)CC1SC(N)=NC1=O (centres undefined),-14.5
10,COc1ccc(CNCc2cccc(Oc3ccccc3)c2)cc1,-23.6
11,O=C1/C(=C\c2ccc(O)cc2)SC(=S)N1c1cccc(C(F)(F)F)c1,-0.2
12,COc1ccc(/C=N/NC(=O)C2CC(=O)N(c3ccc(Cl)cc3)C2)cc1 (centres undefined),-1
13,Cc1oc2c(CN3CCN(C)CC3)c(O)ccc2c(=O)c1-c1nc2ccccc2s1,11.7
14,COc1cc(/C=C2/C(=O)NC(=O)N(c3ccc(C(C)C)cc3)C2=O)cc(Br)c1O,-25.3
15,Cc1ccc(N2CC(C(=O)Nc3ccccn3)CC2=O)cc1 (centres undefined),11.4
16,COc1ccc(-c2cc(C(F)(F)F)n3nc(C(=O)Nc4cc(C)ccc4O)cc3n2)cc1OC,2.3
17,CCCOc1cccc(C(=O)Nc2cccc(-c3nc4ccccc4s3)c2C)c1,5.7
18,Cc1cc(C)nc(Nc2nc3ccccc3c(=O)[nH]2)n1,-0.2
19,C(=N\Nc1nc(Nc2ccccc2)nc(N2CCOCC2)n1)/c1ccc2ccccc2c1,13.9
20,Cc1cc(C)c[n+](C(C)C(=O)c2ccc(Cl)cc2)c1 (centres undefined),3.9
21,COC(=O)c1cc(C(=O)Nc2ccccc2OC)cc([N+](=O)[O-])c1,12.9
22,CCOc1cc(C(=O)NCCc2ccccc2)cc(OCC)c1OCC,-7.2
23,COc1ccccc1N1C(=O)c2cccc3c(N4CCN(C)CC4)ccc(c23)C1=O,157
24,O=C1/C(=C\c2cccs2)SC(=S)N1c1cccc(Br)c1,20.8
25,Cc1ccccc1NC(=S)NC(=O)c1ccc(Cl)cc1,-6.9
26,CC1CN(C(=O)c2ccccc2C(=O)c2ncc[nH]2)CC(C)O1 (centres undefined),-0.9
27,Cc1ccsc1/C=C1/SC(N2CCCC2)=NC1=O,1.4
